# In the supplement of paper PMC9174493:
# The list shows a part of the results. Single values of this set are uncertain. Values with irradiation are relative to irradiated vehicle.
# Tested on: A549-Dual
# Assay: ISRE reporter (Lucia luciferase) activity, viability-corrected, relative to vehicle (fold change vs vehicle); higher = more activation of STING-IRF / NF-kB immune response reporter
# Conditions: 1 µM; irradiation: 8 Gy/4 fr
row,SMILES,ISRE reporter
1,C=CC(=O)Nc1cc(Nc2nccc(-c3cn(C)c4ccccc34)n2)c(OC)cc1N(C)CCN(C)C [Osimertinib (AZD9291)],1.12
2,CC1CC2C3CCC4=CC(=O)C=CC4(C)C3(F)C(O)CC2(C)C1(O)C(=O)COP(=O)([O-])[O-].[Na+].[Na+] (stereo not given) [Dexamethasone Sodium Phosphate],0.0687
3,O=C(O)CCCN1CCC(OC(c2ccc(Cl)cc2)c2ccccn2)CC1.O=S(=O)(O)c1ccccc1 (stereo not given) [Bepotastine Besilate],1.21
4,CC(=O)OC(C)C(C)C(=O)OCC12C3CC4(C)C(=CCC5C6(C)CCC(OC7OC(C(=O)[O][Na])C(OC8OC(CO)C(O)C(O)C8O)C(O)C7OC7OCC(O)C(O)C7O)C(C)(CO)C6CCC54C)C1CC(C)(C)C(O3)C2O (stereo not given) [Sodium Aescinate],1.04
5,Nc1nc(CC(=O)Nc2ccc(CCNCC(O)c3ccccc3)cc2)cs1 (stereo not given) [Mirabegron],0.979
6,O=C1OC(OC(=O)c2cccnc2Nc2cccc(C(F)(F)F)c2)c2ccccc21 (stereo not given) [Talniflumate],0.692
7,CN1C(C(=O)Nc2ccccn2)=C(O)c2sccc2S1(=O)=O [Tenoxicam],0.665
8,CCC(=O)NS(=O)(=O)c1ccc(-c2c(-c3ccccc3)noc2C)cc1 [Parecoxib],0.841
9,CNCC(O)C(O)C(O)C(O)CO.Cc1c(Nc2ncccc2C(=O)O)cccc1C(F)(F)F [Flunixin Meglumin],0.785
10,Cc1cncc(CN2CCC(=C3c4ccc(Cl)cc4CCc4cccnc43)CC2)c1.O=C(O)/C=C/C(=O)O [Rupatadine Fumarate],0.571
